In the supplement of paper PMC8183993:
Where a name gives a salt, the structure may show the parent alone. ± gives the standard deviation of the averaged measurements. In all, about 3,200 compounds were measured (“nuclei count (viability) relative to DMSO”: median about 99, lowest 2% from about 16 on). Some of the results follow.

tested on: U2OS; experiment: nuclei count (viability) relative to DMSO (% of DMSO); higher = more viable cells; conditions: 10 µM; 24 h
Experimental: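 Primary image-based screen in U2OS cells: compounds at 10 uM for 24 h, then a 1 h o-propargyl-puromycin (OPP) pulse, click labelling, and high-throughput microscopy. Mean cytoplasmic OPP intensity and nuclei count were normalised to DMSO wells within each plate (DMSO = 100) and averaged over triplicate plates.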

Row | Structure (SMILES) | nuclei count
1 | CN1[C@@H]2CC[C@H]1C[C@@H](OC(=O)c1c[nH]c3ccccc13)C2 [Tropisetron hydrochloride] | 107
2 | CN1[C@@H]2CC[C@H]1C[C@@H](OC(=O)c1c[nH]c3ccccc13)C2 [Tropisetron HCl] | 89.9
3 | CN[C@@H](C)C(=O)N[C@H]1CN(C(=O)CC(C)C)CC[C@H]2CC[C@@H](C(=O)NC(c3ccccc3)c3ccccc3)N2C1=O | 96.2
4 | Oc1ccc(/C=C/c2cc(O)cc(O)c2)cc1 [Resveratrol] | 80.6 ± 3.9
5 | CCOC(=O)C1=C(COCCN)NC(C)=C(C(=O)OC)C1c1ccccc1Cl (stereo unspecified) [Amlodipine besylate] | 81.4
6 | CCOC(=O)C1=C(COCCN)NC(C)=C(C(=O)OC)C1c1ccccc1Cl (stereo unspecified) [Amlodipine] | 94 ± 3.4
7 | CCN(CC)CCNC(=O)c1c(C)[nH]c(/C=C2\C(=O)Nc3ccc(F)cc32)c1C [Sunitinib Malate (Sutent)] | 47.9
8 | COc1ccc(/C=C/C(=O)Nc2ccccc2C(=O)O)cc1OC [Tranilast] | 101.2 ± 0.66
9 | CCOc1cc2ncc(C#N)c(Nc3ccc(F)c(Cl)c3)c2cc1NC(=O)/C=C/CN(C)C [Pelitinib (EKB-569)] | 79.9
10 | Cc1c(N(C)C)c(=O)n(-c2ccccc2)n1C [Amidopyrine] | 101
11 | Oc1c(Cl)cc(Cl)c(Cl)c1Cc1c(O)c(Cl)cc(Cl)c1Cl [Hexachlorophene] | 90.1 ± 5.1
12 | C=C1C(=O)[C@]23[C@H](O)[C@H]1CC[C@H]2[C@@]12CO[C@]3(O)[C@@H](O)[C@@H]1C(C)(C)CC[C@@H]2O [Oridonin (Isodonol)] | 36
13 | NC(=O)c1ccc2[nH]ccc2c1 | 90.4
14 | O=C1c2c(O)cccc2C([C@@H]2O[C@H](CO)[C@@H](O)[C@H](O)[C@H]2O)c2cc(CO)cc(O)c21 (stereo partly specified) [Aloin (Barbaloin)] | 96.5
15 | CCCCc1cc2ccccc2c(OCCN(C)C)n1 [Dimethisoquin hydrochloride] | 99.4
16 | CC(C(=O)O)c1ccc2c(c1)[nH]c1ccc(Cl)cc12 (stereo unspecified) [Carprofen] | 107
17 | C=CCc1cccc(/C=N/NC(=O)CN2CCN(Cc3ccccc3)CC2)c1O | 72.7
18 | CC(NC(=O)C(Cc1ccccc1)NC(=O)OCc1ccccc1)C(=O)CF (stereo unspecified) | 95
19 | Cc1cccc(C)c1NC(=O)C(C)N (stereo unspecified) [Tocainide hydrochloride] | 112
20 | CN(C)C(=O)C(CCN1CCC(O)(c2ccc(Cl)cc2)CC1)(c1ccccc1)c1ccccc1 [Loperamide hydrochloride] | 101 ± 4.3
21 | Cc1ccccc1C(=O)Nc1ccc(C(=O)N2CCCC(O)c3cc(Cl)ccc32)c(C)c1 (stereo unspecified) | 95.5
